Where two headings read alike, the source gives them in different places.
Key:
human CD39 on cells [1] = target: T1, human CD39 on cells (human, UniProt P49961 1-510); test: cell-based or functional assay
T1 sequence: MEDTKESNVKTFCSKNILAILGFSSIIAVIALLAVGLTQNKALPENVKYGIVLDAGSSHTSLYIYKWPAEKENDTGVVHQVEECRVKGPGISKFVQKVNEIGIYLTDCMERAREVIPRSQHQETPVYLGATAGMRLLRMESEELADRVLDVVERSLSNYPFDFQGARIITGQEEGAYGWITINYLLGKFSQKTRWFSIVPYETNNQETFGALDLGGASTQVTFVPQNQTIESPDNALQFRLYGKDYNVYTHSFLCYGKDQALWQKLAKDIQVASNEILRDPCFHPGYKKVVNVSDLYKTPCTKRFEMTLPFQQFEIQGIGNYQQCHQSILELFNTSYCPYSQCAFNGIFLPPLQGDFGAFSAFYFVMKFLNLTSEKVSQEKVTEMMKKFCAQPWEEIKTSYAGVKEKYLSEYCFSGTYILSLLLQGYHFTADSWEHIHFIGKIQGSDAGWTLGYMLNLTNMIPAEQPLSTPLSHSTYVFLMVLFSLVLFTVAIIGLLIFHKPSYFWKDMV

[2] = target: T2, human CD39 (recombinant protein in solution) (human, UniProt P49961 38-478, limits assumed); test: cell-based or functional assay
T2 sequence: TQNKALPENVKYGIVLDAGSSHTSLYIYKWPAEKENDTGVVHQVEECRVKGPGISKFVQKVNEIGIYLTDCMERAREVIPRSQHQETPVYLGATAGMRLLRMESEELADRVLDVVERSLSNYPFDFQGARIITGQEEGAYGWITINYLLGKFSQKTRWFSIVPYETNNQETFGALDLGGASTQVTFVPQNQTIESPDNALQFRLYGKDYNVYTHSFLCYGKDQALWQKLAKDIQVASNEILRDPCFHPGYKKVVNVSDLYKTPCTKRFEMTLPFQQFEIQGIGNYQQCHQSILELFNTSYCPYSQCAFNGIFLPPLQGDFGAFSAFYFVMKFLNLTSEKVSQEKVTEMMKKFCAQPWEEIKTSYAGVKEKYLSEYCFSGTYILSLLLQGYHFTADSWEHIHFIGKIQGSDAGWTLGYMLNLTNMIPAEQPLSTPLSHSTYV

human CD39 on cells [3] = target: T1, human CD39 on cells; test: cell-based or functional assay; remark: listed apart in the source
human CD39 on cells [4] = target: T1, human CD39 on cells; test: cell-based or functional assay; remark: listed apart in the source
[5] = target: T2, human CD39 (recombinant protein in …); test: cell-based or functional assay; remark: listed apart in the source
human CD39 on cells [6] = target: T1, human CD39 on cells; test: flow cytometry on CHO-hCD39 cells, MFI titration
human CD39 on cells [7] = target: T1, human CD39 on cells; test: flow cytometry on CHO-hCD39 cells, MFI titration; remark: listed apart in the source
cynomolgus CD39 on cells [8] = target: T3, cynomolgus CD39 on cells (cynomolgus, UniProt P49961 6-510 (human entry)); test: flow cytometry on CHO-cyCD39 cells, MFI titration
T3 construct: also called cyCD39; CHO-cyCD39 cells
T3 chain: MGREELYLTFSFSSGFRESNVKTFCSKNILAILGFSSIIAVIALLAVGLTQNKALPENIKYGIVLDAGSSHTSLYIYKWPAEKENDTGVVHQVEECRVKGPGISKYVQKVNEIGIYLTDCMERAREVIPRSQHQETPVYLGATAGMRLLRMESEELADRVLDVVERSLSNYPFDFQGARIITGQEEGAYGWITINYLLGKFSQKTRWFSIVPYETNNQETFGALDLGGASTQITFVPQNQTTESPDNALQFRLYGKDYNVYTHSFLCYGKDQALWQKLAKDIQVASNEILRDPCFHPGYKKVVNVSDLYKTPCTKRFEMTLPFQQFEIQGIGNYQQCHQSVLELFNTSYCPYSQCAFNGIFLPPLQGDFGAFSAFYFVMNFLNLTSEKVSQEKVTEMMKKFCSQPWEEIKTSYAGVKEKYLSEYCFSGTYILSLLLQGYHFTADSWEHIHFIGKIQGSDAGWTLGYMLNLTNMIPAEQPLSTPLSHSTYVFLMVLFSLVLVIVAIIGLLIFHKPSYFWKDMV

cynomolgus CD39 on cells [9] = target: T3, cynomolgus CD39 on cells; test: flow cytometry on CHO-cyCD39 cells, MFI titration
[10] = target: T2, human CD39 (recombinant protein in …); test: BLI (ForteBio), method of Example 3, human CD39 in solution
Experimental: (§1) ForteBio affinity test was conducted according to the existing methods (Estep, P et al., High throughput solution based measurement of antibody-antigen affinity and affinity binding. MAbs, 2013.5 (2): p. 270-8). In short, the sensor is balanced offline in the analysis buffer for 30 min, and then tested online for 60 s to establish baseline. After that, the AHQ sensor is online loaded with the above-obtained purified antibody, and put into 100 nM human CD39 (SEQ ID NO: 28) for 5 min, and then transferred the sensor to PBS for dissociation for 5 min. A 1:1 binding model is used for the dynamic analysis.
The humanized sequences are subjected to the humanized antibody vector construction, expression and purification according to the method described in Example 2. […] The purified humanized antibodies were subjected to the affinity test at protein level according to the method described in Example 3.

[11] = target: T2, human CD39 (recombinant protein in …); test: as above; remark: listed apart in the source
Experimental: as §1

[12] = target: T2, human CD39 (recombinant protein in …); test: BLI (ForteBio), antibody loaded on AHQ sensor, 100 nM human CD39 in solution, 1:1 model
Experimental: as §1

human CD39 on cells [13] = target: T1, human CD39 on cells; test: cell-based or functional assay; remark: listed apart in the source
human CD39 on cells [14] = target: T1, human CD39 on cells; test: flow cytometry on CHO-hCD39 cells, median fluorescence intensity PE-A
cynomolgus CD39 on cells [15] = target: T3, cynomolgus CD39 on cells; test: flow cytometry on CHO-cyCD39 cells, median fluorescence intensity PE-A
human PD-1 on cells = target: T4, human PD-1 on cells (human, UniProt Q15116 25-288); test: flow cytometry on CHOS cells overexpressing human PD1, median fluorescence intensity PE-A
Sequence of human PD-1 on cells (Q15116 25-288 limits assumed): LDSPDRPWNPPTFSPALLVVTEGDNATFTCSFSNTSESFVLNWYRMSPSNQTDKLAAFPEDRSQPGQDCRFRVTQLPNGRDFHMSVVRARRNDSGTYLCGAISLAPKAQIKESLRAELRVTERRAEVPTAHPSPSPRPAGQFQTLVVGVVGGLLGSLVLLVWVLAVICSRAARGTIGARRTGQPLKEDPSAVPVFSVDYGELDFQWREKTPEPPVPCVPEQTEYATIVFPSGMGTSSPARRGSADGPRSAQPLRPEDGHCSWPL
T4 construct: also called CHO-hPD1 cell

cynomolgus PD-1 on cells = target: T5, cynomolgus PD-1 on cells (cynomolgus, UniProt Q15116 25-288 (human entry)); test: flow cytometry on CHOS cells overexpressing cynomolgus PD1, median fluorescence intensity PE-A
T5 construct: also called CHO-cynoPD1 cell
T5 chain: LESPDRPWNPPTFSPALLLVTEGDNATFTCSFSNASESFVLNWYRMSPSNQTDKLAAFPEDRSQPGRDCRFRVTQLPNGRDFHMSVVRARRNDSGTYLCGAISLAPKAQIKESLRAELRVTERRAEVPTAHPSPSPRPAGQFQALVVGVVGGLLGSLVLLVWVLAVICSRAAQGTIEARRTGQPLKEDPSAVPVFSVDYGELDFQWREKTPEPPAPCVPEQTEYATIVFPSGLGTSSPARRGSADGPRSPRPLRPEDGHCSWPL

B1: R-Ye-19(1)-037 (Fc fusion)
chain: QVQLQESGGGLVQAGGSLRLACTVSRGTFSEYSMGWFRQAPGQERDFVTAISGFGHITHYADSVKGRFTISRDNAANTVYLQMNTLKPEDTAVYYCAAAWQTSPRRMMQMAGSITWGQGTQVTVSS[human IgG1 Fc with changes cut from this listing]
notes: also called anti-CD39 nanobody
What does the source list for B1?
EC50 of blocking CD39 enzyme activity in human CD39 overexpression cells (ATP, CellTiter-Glo) (human CD39 on cells [1]): 36.5 nM; EC50 of blocking enzyme activity of soluble CD39 [2]: 3.15 nM; EC50 of blocking CD39 enzyme activity of human CD39 overexpression cells (human CD39 on cells [3]): 3.79 nM; EC50 of blocking CD39 enzyme activity in PBMC system (human CD39 on cells [4]): 4.95 nM; EC50 of blocking enzyme activity of soluble human CD39 [5]: 18.6 nM; EC50 (human CD39 on cells [6]): 7.22 nM; EC50 (human CD39 on cells [7]): 7.7 nM; EC50 (cynomolgus CD39 on cells [8]): 5.13 nM; EC50 (cynomolgus CD39 on cells [9]): 4.94 nM; Kd [10]: 3.5 nM; koff [10]: 0.00108 s⁻¹; kon [10]: 311000 M⁻¹ s⁻¹; Kd [11]: 6.81 nM; koff [11]: 0.00197 s⁻¹; kon [11]: 289000 M⁻¹ s⁻¹; koff [12]: ~0.00121 s⁻¹; kon [12]: 125000 M⁻¹ s⁻¹

B2: R-Ye-19(1)-046 (Fc fusion)
chain: QVQLQESGGGLVQTGRSLRLSCAASGDIFSINYMGWYRQAPGNERELVAAITGRGNTNYADSVKGRFTISRDNAKNTVYLQMNSLKPEDTAVYYCNAWDYSDYDEGPLREYDYWGQGTQVTVSS[human IgG1 Fc with changes cut from this listing]
notes: as for B1
How did the “EC50 of blocking CD39 enzyme activity in human CD39 overexpression cells (ATP, CellTiter-Glo)” value (human CD39 on cells [1]) turn out when B2 was run?
The value was 13.8 nM.

And the “EC50 of blocking CD39 enzyme activity in PBMC system” value (human CD39 on cells [13])?
Its value is 13.8 nM.

What about the “EC50 of blocking enzyme activity of soluble CD39” value [2] of the same binder?
Its value is 2.48 nM.

What about the “EC50 of blocking CD39 enzyme activity of human CD39 overexpression cells” value (human CD39 on cells [3]) of the same binder?
Its value is 2.87 nM.

And the “EC50 of blocking CD39 enzyme activity in PBMC system” value (human CD39 on cells [4])?
Its value is 2.04 nM.

And the “EC50 of blocking enzyme activity of soluble human CD39” value [5]?
Its value is 16.6 nM.

What about the EC50 (human CD39 on cells [6]) of the same binder?
Its EC50 is 5.14 nM.

What about the EC50 (human CD39 on cells [7]) of the same binder?
The EC50 was 5.96 nM.

What about the EC50 (cynomolgus CD39 on cells [8]) of the same binder?
Its EC50 is 6 nM.

What about the EC50 (cynomolgus CD39 on cells [9]) of the same binder?
The EC50 was 3.03 nM.

And the Kd [10]?
The Kd was 0.63 nM.

What about the koff [10] of the same binder?
Its koff is 0.000181 s⁻¹.

And the kon [10]?
Its kon is 289000 M⁻¹ s⁻¹.

And the Kd [11]?
Its Kd is 2.72 nM.

What about the koff [11] of the same binder?
Its koff is 0.00094 s⁻¹.

And the kon [11]?
The kon was 346000 M⁻¹ s⁻¹.

And the Kd [12]?
The Kd was 1.24 nM.

And the koff [12]?
The koff was 0.000529 s⁻¹.

And the kon [12]?
The kon was 421000 M⁻¹ s⁻¹.

B3: Fc-37-46 (bispecific antibody)
chain: [human IgG1 Fc with changes cut from this listing]GGGGAGGGGAGGGGAGGGGAEVQLLESGGGLVQPGGSLRLSCAVSRGTFSEYSMSWFRQAPGKEREFVTAISGFGHITHYADSVKGRFTISRDNSKNTVYLQMNSLRAEDTAVYYCAAAWQTSPRRMMQMAGSITWGQGTQVTVSSGGGGAGGGGAGGGGAGGGGAGGGGAGGGGAGGGGAEVQLLESGGGLVQPGGSLRLSCAASGDIFSINYMSWYRQAPGNERELVAAITGRGNTNYADSVKGRFTISRDNSKNTVYLQMNSLRAEDTAVYYCNAWDYSDADEGPLREYDYWGQGTQVTVSSA
notes: also called bi-epitopic anti-CD39 antibody with Fc-C-terminal structure
How did the Kd [11] turn out when B3 was run?
The Kd was 0.374 nM.

And the koff [11]?
The koff was 0.000114 s⁻¹.

And the kon [11]?
The kon was 305000 M⁻¹ s⁻¹.

What about the “EC50 (read off the curve)” value (human CD39 on cells [14]) of the same binder?
The value was ~20 nM.

What about the “EC50 (read off the curve)” value (cynomolgus CD39 on cells [15]) of the same binder?
Its value is ~20 nM.

Does B3 bind (human PD-1 on cells)?
Result: no binding (tested: 200 nM)

Does B3 bind (cynomolgus PD-1 on cells)?
Result: no binding (tested: 200 nM)
